Experimental data as given in PubChem BioAssay AID493208 (National Center for Advancing Translational Sciences (NCATS), 2011).
Screen size: about 44,000 compounds; about 340 (0.77%) were called active. About 5% were inconclusive and are not listed. Calls come from the whole dose curve; as a rule, active = well fitted inhibition curve with a large enough effect; inconclusive = small, poorly fitted or top-dose-only effect; inactive = flat fitted curve, though single readings scatter. The list shows a part of the results.

Assay: Acumen qHTS Assay for Inhibitors of the mTORC1 Signaling Pathway in MEF (Tsc2-/-, p53-/-) Cells: Sytravon; note: nearly all actives have a fitted effect of over 50% in size;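 for activity change, negative = inhibition: plate controls were DMSO for no effect and rapamycin for full effect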
Conditions: phospho-rpS6 immunofluorescence/PI, 24 h; series mostly up to 38.3 µM; activity change, negative = inhibition: at the top concentration
Method in brief: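 Tsc2-/-, p53-/- mouse embryonic fibroblasts (empty-vector line) exposed to compound 24 hrs at 37 C, fixed, immunostained for phospho-rpS6 and counterstained with propidium iodide. Acumen laser scanning gives % positive cells from Alexa 488/PI ratio, thresholded using 7.5 nM rapamycin; PI count gives viability.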
Potency is the fitted concentration of half-maximal effect.

SMILES	activity change, negative = inhibition	Potency
COc1ccc(Cl)cc1NCc1nnc2n1CCCCC2	inactive: 0%	–
COc1ccc(CC(C)NS(=O)(=O)c2ccc3c(c2)CCN3S(C)(=O)=O)cc1OC (stereo not drawn)	inactive: -1.48%	–
COC(=O)c1c(NC(=O)c2ccc(OC)cc2OC)sc2c1CCCCC2	inactive: -1.23%	–
CCOc1ccc2nc(NC(=O)c3nc(SCc4ccccc4F)ncc3Cl)sc2c1	inactive: -0.204%	–
Cc1cc(C)cc(-n2c(SCC(=O)Nc3ccccc3)nc3c(oc4ccccc43)c2=O)c1	inactive: -7.2%	–
Cc1ccc(-n2nc3c(=O)n(C(C)C(=O)NCc4ccc(OC(C)C)cc4)nc(C)c3c2C)cc1 (stereo not drawn)	inactive: -12.4%	–
CCCCn1c(=O)n(CC2CCC(C(=O)NCCCOC)CC2)c(=O)c2sccc21 (stereo not drawn)	inactive: -2.47%	–
COc1cc(OC)cc(-c2nc3nc(C)c(CCC(=O)Nc4cc(C)cc(C)c4)c(C)n3n2)c1	inactive: -1.54%	–
CC(=O)c1ccc(NC(=O)CSC2=Nc3ccccc3N=C(c3ccc(F)cc3)C2)cc1	inactive: 3.84%	–
CC(C)Cn1cc(NC(=O)N2CCN(c3ccc(F)cc3)CC2)c2ccccc2c1=O	inactive: 6.08%	–
CCC(Cc1ccccc1)NC(=O)Cn1nc(C)n2c(cc3occc32)c1=O (stereo not drawn)	inactive: -3.04%	–
CC(=O)c1cccc(NC(=O)c2sc(-n3nc(C)c(Cc4ccccc4)c3C)nc2C)c1	inactive: -0.889%	–
CCCS(=O)(=O)N1CC(=O)N(c2cccc(Cl)c2)C(C)(C(=O)NC2CCCCC2)C1 (stereo not drawn)	inactive: 1.87%	–
Cc1cc(=O)[nH]c2nnc(SCc3ccc(Cl)cc3Cl)n12	inactive: 2.7%	–
Cc1ccc2c(CNC3CCCCC3)c(C(=O)O)n(Cc3ccc(F)cc3)c2c1	inactive: -0.365%	–
COc1cccc(-c2cc(C(=O)NCCc3ccc(OC)c(OC)c3)no2)c1	inactive: -9.56%	–
O=C(Cn1c(SCc2ccc(F)cc2)nc2cccnc21)Nc1ccccc1F	inactive: 0.495%	–
Cc1ccc2nc(COc3cccc(NC(=O)Nc4ccc(C)c(Cl)c4)c3)cc(=O)n2c1	inactive: 2.95%	–
COCCNC(=O)c1ccc2c(c1)N(Cc1cc(C)ccc1C)C(=O)c1ccccc1S2=O (stereo not drawn)	inactive: -13.1%	–
COc1cccc2cc(-c3nc(-c4ccccc4F)no3)c(=O)oc12	inactive: 1.34%	–
CCOc1ccccc1CNC(=O)c1cc2c(=O)n(Cc3cccnc3)ccc2nc1C	inactive: 0%	–
O=C(Nc1ccc(F)c(Cl)c1)c1ccc2c(Cl)c3c(nc2c1)CCCC3	inactive: -0.0484%	–
Cc1ccc(-n2c(SCc3ccccc3F)nc3[nH]ncc3c2=O)cc1Cl	inactive: -7.84%	–
CCc1cccc(NC(=O)Cn2c(C(=O)OC)cc3sc(Cl)cc32)c1	inactive: -13%	–

SMILES	activity change, negative = inhibition	Potency
O=C(NCc1ccccc1)C1CCN(S(=O)(=O)Cc2ccccc2)CC1	inactive: 3.59%	–
CCN(CC)CCNC(=O)C1CCN(C(=O)c2cnn(-c3ccccc3)c2-n2cccc2)CC1	inactive: -3.39%	–
Cc1ccc(NC(=O)CSc2nc(=O)cc(N)n2-c2ccccc2)cc1	inactive: 6.36%	–
CCOC(=O)N1CCc2c(sc3c2C(=O)NC(c2ccc(N(C)C)cc2)N3)C1 (stereo not drawn)	inactive: -0.346%	–
Cc1ccc2nc(NC(=O)CSc3[nH]c(=O)ncc3C)sc2c1	inactive: -7.45%	–
CCCCOc1ccc(C2c3c(oc4ccc(C)cc4c3=O)C(=O)N2CCCN(C)C)cc1OCC (stereo not drawn)	inactive: -7.97%	–
CC(=O)NCCNC(=O)CCCn1c(=O)[nH]c2ccsc2c1=O	inactive: -2.27%	–
CCN(CC)S(=O)(=O)c1cccc(C(=O)Nc2ccccc2C(=O)Nc2ccc(Cl)cc2)c1	inactive: 0.214%	–
Cc1ccc(C)c(NS(=O)(=O)c2cc3c(cc2C)n(C)c(=O)c(=O)n3C)c1	inactive: -1.76%	–
Cc1ccc(-n2c(/C=C/c3c(C)n(C)c4ccccc34)nc3ccccc3c2=O)cc1	inactive: 4.39%	–
CCOC(=O)c1c(NC(=O)Cc2coc3cc(C)cc(C)c23)sc2c1CCC2	inactive: -0.655%	–
COCCN(CCOC)S(=O)(=O)c1ccc(C(=O)Nc2sc3c(c2C(=O)OC)CCN(C)C3)cc1	inactive: -11.7%	–
CC(=O)c1ccc(NC(=O)c2cc(C)nn2-c2ccccc2)cc1	inactive: -0.015%	–
CCCCN(CCCNC(=O)c1cc(Nc2cccc(SC)c2)nc2ccccc12)Cc1ccccc1	–	active: 16.5 µM
CCOc1cccc(C(=O)Nc2ccc(-c3nc4ncccc4o3)cc2C)c1	inactive: 7.93%	–
Cc1ccc(NC(=O)c2cc(S(=O)(=O)N3CCC4(CC3)OCCO4)ccc2F)cc1Cl	inactive: -0.201%	–
COC(=O)c1c(NC(C)=O)c2c3c(sc2n1Cc1cc(C)ccc1C)CCCC3	inactive: -3.99%	–
CCOC(=O)c1ccccc1NC(=O)c1sc2nc3n(c(=O)c2c1C)CCCCC3	inactive: -6.9%	–
CN(C)S(=O)(=O)N(CC(=O)NCCSCc1c(F)cccc1Cl)c1ccccc1	inactive: -6.26%	–
O=c1[nH]c(SCc2c(F)cccc2Cl)nc2c1CCC2	inactive: 0.17%	–
Cc1cccc(-n2c(C)cc(C(=O)C(=O)Nc3ccccc3F)c2C)c1C	inactive: 1.12%	–
Cc1ccc(S(=O)(=O)N2CCC(N3CCN(Cc4ccccc4)C(=O)C3=O)CC2)cc1C	inactive: 1.12%	–
Cc1ccc(S(=O)(=O)CC(=O)Nc2nc3c(C)cc(C)cc3s2)cc1	inactive: 1.07%	–
Cc1cccc(C(=O)Nc2nnc(S(=O)(=O)N(C)Cc3ccccc3)s2)c1	inactive: 7.06%	–
